Data taken from article PMC5027247.
Results are given in words; binding and its absence hold for the method and conditions named. For some assays here: In cells and extracts the contact can be indirect. Some results given as binding are weak or reduced against the parent protein; the word gives no strength. Sequences can lack the tags named with a protein.

By UniProt entry, the sequences of proteins in these tests, tags left out. Where a name states a change or a piece, a line headed by the entry shows the natural chain unless it says otherwise. Chains listed by the source or under a name are the forms on record and can include a tag or linker. Residues count along the entry.
UniProt Q96CV9: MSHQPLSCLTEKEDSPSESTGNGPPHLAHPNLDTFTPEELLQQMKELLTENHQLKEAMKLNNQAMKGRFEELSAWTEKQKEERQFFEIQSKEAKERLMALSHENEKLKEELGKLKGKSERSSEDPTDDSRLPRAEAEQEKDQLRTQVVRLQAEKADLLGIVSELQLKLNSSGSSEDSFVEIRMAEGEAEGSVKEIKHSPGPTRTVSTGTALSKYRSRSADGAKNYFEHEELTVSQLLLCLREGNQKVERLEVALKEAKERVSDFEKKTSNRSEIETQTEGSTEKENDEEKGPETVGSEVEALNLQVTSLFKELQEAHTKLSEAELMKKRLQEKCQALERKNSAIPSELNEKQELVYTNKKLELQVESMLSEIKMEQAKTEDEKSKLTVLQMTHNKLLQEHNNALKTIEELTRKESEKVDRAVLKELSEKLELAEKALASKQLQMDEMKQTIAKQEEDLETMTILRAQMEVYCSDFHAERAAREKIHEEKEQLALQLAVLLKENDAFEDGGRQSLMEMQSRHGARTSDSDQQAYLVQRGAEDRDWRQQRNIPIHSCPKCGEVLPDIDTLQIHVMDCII
Flag-tagged OPTN(120–577): residues 120-577 of Q96CV9
GST-tagged OPTN(26–119) M44Q/M54Q (Q96CV9, form named): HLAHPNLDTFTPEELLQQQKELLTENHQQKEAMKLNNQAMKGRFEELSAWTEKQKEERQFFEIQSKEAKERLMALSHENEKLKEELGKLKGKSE
GST-tagged OPTN(26–119) L47Q/L54Q (Q96CV9, form named): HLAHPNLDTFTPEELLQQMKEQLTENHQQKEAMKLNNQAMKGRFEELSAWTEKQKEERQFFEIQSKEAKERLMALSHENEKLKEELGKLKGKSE

B1: GFP-tagged TBK1 (residues 1–729) (protein, UniProt Q9UHD2 1-729)
chain: MQSTSNHLWLLSDILGQGATANVFRGRHKKTGDLFAIKVFNNISFLRPVDVQMREFEVLKKLNHKNIVKLFAIEEETTTRHKVLIMEFCPCGSLYTVLEEPSNAYGLPESEFLIVLRDVVGGMNHLRENGIVHRDIKPGNIMRVIGEDGQSVYKLTDFGAARELEDDEQFVSLYGTEEYLHPDMYERAVLRKDHQKKYGATVDLWSIGVTFYHAATGSLPFRPFEGPRRNKEVMYKIITGKPSGAISGVQKAENGPIDWSGDMPVSCSLSRGLQVLLTPVLANILEADQEKCWGFDQFFAETSDILHRMVIHVFSLQQMTAHKIYIHSYNTATIFHELVYKQTKIISSNQELIYEGRRLVLEPGRLAQHFPKTTEENPIFVVSREPLNTIGLIYEKISLPKVHPRYDLDGDASMAKAITGVVCYACRIASTLLLYQELMRKGIRWLIELIKDDYNETVHKKTEVVITLDFCIRNIEKTVKVYEKLMKINLEAAELGEISDIHTKLLRLSSSQGTIETSLQDIDSRLSPGGSLADAWAHQEGTHPKDRNVEKLQVLLNCMTEIYYQFKKDKAERRLAYNEEQIHKFDKQKLYYHATKAMTHFTDECVKKYEAFLNKSEEWIRKMLHLRKQLLSLTNQCFDIEEEVSKYQEYTNELQETLPQKMFTASSGIKHTMTPIYPSSNTLVEMTLGMKKLKEEMEGVVKELAENNHILERFGSLTMDGGLRNVDCL
B2: GFP-tagged TBK1 (residues 1–674) (domain or fragment, UniProt Q9UHD2 1-674)
chain: MQSTSNHLWLLSDILGQGATANVFRGRHKKTGDLFAIKVFNNISFLRPVDVQMREFEVLKKLNHKNIVKLFAIEEETTTRHKVLIMEFCPCGSLYTVLEEPSNAYGLPESEFLIVLRDVVGGMNHLRENGIVHRDIKPGNIMRVIGEDGQSVYKLTDFGAARELEDDEQFVSLYGTEEYLHPDMYERAVLRKDHQKKYGATVDLWSIGVTFYHAATGSLPFRPFEGPRRNKEVMYKIITGKPSGAISGVQKAENGPIDWSGDMPVSCSLSRGLQVLLTPVLANILEADQEKCWGFDQFFAETSDILHRMVIHVFSLQQMTAHKIYIHSYNTATIFHELVYKQTKIISSNQELIYEGRRLVLEPGRLAQHFPKTTEENPIFVVSREPLNTIGLIYEKISLPKVHPRYDLDGDASMAKAITGVVCYACRIASTLLLYQELMRKGIRWLIELIKDDYNETVHKKTEVVITLDFCIRNIEKTVKVYEKLMKINLEAAELGEISDIHTKLLRLSSSQGTIETSLQDIDSRLSPGGSLADAWAHQEGTHPKDRNVEKLQVLLNCMTEIYYQFKKDKAERRLAYNEEQIHKFDKQKLYYHATKAMTHFTDECVKKYEAFLNKSEEWIRKMLHLRKQLLSLTNQCFDIEEEVSKYQEYTNELQETLPQKMFTASSGIKHTMT
B3: Trx-His-tagged TBK1 CTD (residues 677–729) (domain or fragment, UniProt Q9UHD2 677-729)
chain: YPSSNTLVEMTLGMKKLKEEMEGVVKELAENNHILERFGSLTMDGGLRNVDCL

How the values were obtained:
[1] = biological target: Flag-tagged full-length OPTN (residues 1–577) (human) (UniProt Q96CV9); test: co-IP; Flag-tagged OPTN and GFP-tagged TBK1 co-transfected in HEK293T; lysate on anti-Flag agarose beads, 4 h at 4 °C; western blot with anti-Flag and anti-GFP
[2] = biological target: Flag-tagged OPTN(120–577) (human) (UniProt Q96CV9); test: as above
[3] = biological target: GST-tagged OPTN(26–119) M44Q/M54Q (human) (UniProt Q96CV9); test: pull-down; GST-tagged OPTN and Trx-His-tagged TBK1 mixed at 1:4, glutathione sepharose 4B beads; 50 mM Tris pH 7.5, 100 mM NaCl, 1 mM DTT, 1 mM EDTA; Coomassie or anti-His blot; both purified
[4] = biological target: GST-tagged OPTN(26–119) L47Q/L54Q (human) (UniProt Q96CV9); test: as above

Binder | binding [1] | binding [2] | binding [3] | binding [4]
B1 | binds | no binding | – | –
B2 | no binding | – | – | –
B3 | – | – | no binding | no binding
